Read counts are not given, so values of variants with three or more changes are uncertain.
B1: CPEB3 Ribozyme (parent)
chain: UAACAGGGGGCCACAGCAGAAGCGUUCACGUCGCAGCCCCUGUCAGAUUCUGGUGAAUCUGCGAAUUCUGCUGUAUAUCUC

Variants of: B1
Experiment: self-cleavage, relative activity (ratio to wild type); higher = more cleavage; in vitro, sequencing
Outline: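 CPEB3 self-cleaving ribozyme mutant libraries were made by rounds of error-prone PCR, barcoded, and transcribed in vitro with T7 RNA polymerase for 5 hours at 37°C. Cleavage occurred during transcription and a 15 min DNase I step before EDTA stop. RNAs were reverse transcribed with template switching and Illumina-sequenced, with DNA sequencing mapping barcodes to variants. Relative activity is the variant's cleaved/total read fraction divided by wild type's (minimum 5 reads), averaged across three batches.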

| Variant | self-cleavage |
| --- | --- |
| G42A U58A U80A | 0.19 |
| U43C U49C C81G | 0.12 |
| U43A A56G U60C | 0.46 |
| U41C A47G U48C U49A A56G C68A U74A | 0.16 |
| U43A U51A C62A U72A | 0.67 |
| U41A U58C U76A | 0.14 |
| U41A C59A A64G U69A A75U | 0.13 |
| U43A U69A A77G | 0.83 |
| U41A A45U U54A | 0.15 |
| U43A U58C U76C | 0.5 |
| U41G U67C U80C | 0.1 |
| U41C A64G U67C | 0.35 |
| U41C C62U A65G | 0.21 |
| U41C U43C U60C U74A | 0.46 |
| U41A U49C A56G A77U | 0.42 |
| U43C A45G U51C | 0.2 |
| U43G A64U U80A | 0.15 |
| C40U U48G U49A U72C | 0.12 |
| U41C U78C C79G U80C | 1.22 |
| U43C U49C U72C | 0.27 |
| U41C U43C G61C | 0.04 |
| U43A U51A U74A U80A | 1.28 |
| U43A U49C A64U | 0.35 |
| U41G U49C A64G G73A U80C | 0.22 |

| Variant | self-cleavage |
| --- | --- |
| C44A U60C U76C | 0.17 |
| U43C G55A G63A G73U U78C | 0.8 |
| C40U A57G G63A | 0.49 |
| U43A A45G U72C A77G | 1.11 |
| G42A U43C A75U | 0.48 |
| C40U A56U G63U | 0.63 |
| A45C U60A A64U | 0.19 |
| C44U A47U U49A U60C | 0.33 |
| U41C U60C U69C U76C U80C | 0.33 |
| U41A G46C U72A | 0.08 |
| C40U U41C A64G | 0.9 |
| U41C G63A A64G | 0.52 |
| U43C U48C A57G | 0.87 |
| U41C A47U U72A U80C | 0.4 |
| A45C U72C C81A | 0.78 |
| U41C U49A G63A U72C U78C | 0.88 |
| U41C G63U A77U | 1.15 |
| U41A U49A U76C U80C | 0.16 |
| C40A U48C U51C | 0.32 |
| U43A A45U A64G | 0.31 |
| A45G C50U U58C U60A | 0.12 |
| U43C U54G U60C G70A U80A | 0.12 |
| U41A U58G A64G A65G U76C | 0.06 |
| U41A U51A U67A U72C U80C | 0.08 |

| Variant | self-cleavage |
| --- | --- |
| U43G A45G U54A | 0.29 |
| U41A A45U U76C | 0.1 |
| C40G U72C U80A | 0.05 |
| U41C C50G U67C | 0.17 |
| U41C U49C U60C G63U C79U | 0.18 |
| A45G A57G U67C U69A | 0.33 |
| C40A U41C A56G U66C | 0.06 |
| U41C A56G U66C U72C U78A | 0.4 |
| U41C U49C U67C | 0.23 |
| A45G U48C C50U A56G | 0.38 |
| A45C U49C U72C | 0.09 |
| U43C U51A U60A C68U U69A | 0.14 |
| U41C U54A U66C | 0.49 |
| A45C U78C U80A | 0.23 |
| U41A U51C U54A C59U G73U | 0.23 |
| U41A A45U A75U | 0.1 |
| U41A A57G U66C U74C | 0.18 |
| G42A U43A U54A | 0.25 |
| U41A U66C A75U | 0.36 |
| U43C C50U U54C | 0.25 |
| U41G A64G U72C | 0.09 |
| A45G A57G U60C A65U C71G | 0.16 |
| U43C U54G U80C | 0.68 |
| U43A U60A U74C | 1.06 |

| Variant | self-cleavage |
| --- | --- |
| A45G G70A U74C | 0.77 |
| U41C U67A U72G G73C | 0.54 |
| U43C A64G G73C U74A | 0.54 |
| C40A U43C U72A U76C | 0.14 |
| A45G G73U U78C U80C | 1.13 |
| U41A A45G U58A | 0.12 |
| U43A A47U A57G | 0.19 |
| A45G A56G U69A | 0.37 |
| U43G A47G U69G | 0.08 |
| U41A C59A A65G U69C | 0.09 |
| A45C U49C U54A U60C A64G | 0.19 |
| U43C U51A U58C G70A A77U | 0.09 |
| C44U C59A G70U | 0.12 |
| U43C A47G A64G A65G | 0.17 |
| U43C U58A C68G | 0.13 |
| U43C A45G U48C U66C | 0.14 |
| U43C U69C C71A U78A | 0.46 |
| U41C A64G U69A | 0.49 |
| U41C U60C U72C | 0.57 |
| U43C U72A C79U | 0.51 |
| U43C U72C U74A C79G | 0.98 |
| C40G U54C U67C | 0 |
| U43C A56G A65G A75U | 0.08 |
| U43C A64G U66C | 0.11 |

| Variant | self-cleavage |
| --- | --- |
| U41C G53A G61A U78G | 0.91 |
| G42A U51C U67A | 0.18 |
| U41C U43C G73U | 0.94 |
| U43A U49C U72G | 0.2 |
| C40A U58A A75G | 0.29 |
| U41A U43C U58A U67C | 0.33 |
| U43C U60A U72C | 0.18 |
| U43C U51C U67C | 0.35 |
| U41C U66C C68A | 0.23 |
| U43A U49C U60C | 0.41 |
| U43A U54C U69C | 0.51 |
| U41G U66A U80A | 0.08 |
| U43C U72C C79G | 1.12 |
| U43C U51C U72C | 0.44 |
| U41A U66C U78C | 0.13 |
| U41C U54A C68A U69A | 0.38 |
| G42A G52A U60C C81U | 0.07 |
| C44U U54C U69A | 0.39 |
| G42A C59U U66C | 0.22 |
| A45G A57G C59A U67A | 0.2 |
| U43C A56G G73C | 0.69 |
| U41C U51C U60A U72C | 0.52 |
| U41A G46A U60A U80A | 0.27 |
| C40U G53C C62U U72C | 0.38 |

| Variant | self-cleavage |
| --- | --- |
| U41C U66C U72C A75G U80A | 0 |
| U41A A56U U58A U72G U74C U78C | 0.12 |
| U41C U49C A65G | 0.11 |
| U43C A57G U60C | 0.17 |
| U41C U51A A56U | 0.99 |
| U41C U58C U66C | 0.35 |
| U41A G46U U54C U76C | 0.11 |
| A45G A56G U76C | 0.42 |
| U41C A47C U80C | 0.59 |
| U41C U49C G61A C62U U78G | 0.13 |
| C44U U66C A77U | 0.06 |
| U43C U69C U80C | 0.16 |
| U41C U43C G55A U66C U74A | 0.09 |
| A45G A77G U80C | 0.65 |
| U43C U51A C71U | 0.61 |
| U43A U51A A64G | 0.89 |
| U43C A57G U67A | 0.14 |
| U41G U69C U78C | 0.05 |
| U41A A56G U67C U78C | 0.07 |
| U41C U54G U58A U72G | 0.11 |
| U41C U49C A65U U74A U76C | 0.15 |
| U41C A45U A75G U76A | 0.35 |
| A45C U67C G70A U78C | 0.14 |
| U43C G46A U69A | 0.29 |

| Variant | self-cleavage |
| --- | --- |
| U43A A45C U54C C81A | 0.63 |
| U41A U43A U67C | 0.1 |
| C40U G42A A45G | 0.3 |
| U41G U60A U80C | 0.4 |
| C40U A64U U72C | 0.11 |
| U43C C50U U69C | 0.11 |
| U41A U60C U74C A75G | 0.1 |
| U43C A47G G63A A64U | 0.4 |
| U41A U74A U78C | 0.07 |
| G42C A45U A64G U66C | 0.13 |
| U43C A64G U66C A75U | 0.1 |
| U41A U48C U72A | 0.25 |
| U43A A65C C71U | 0.68 |
| U41C C59U U74A | 1.05 |
| G42A A56G U60C | 0.46 |
| U43A U54C A57G U60C U72A U78C | 0.4 |
| C40U A57G A64G | 0.29 |
| U41C U66A U69A | 0.26 |
| A45G G53A U80A | 0.97 |
| A45G A56G A57G U69C | 0.18 |
| U41C U60A U72A | 0.31 |
| U43A G46C A57G U78C | 0.14 |
| U41G U72C U78C | 0.34 |

Source: the RNAGym collection of RNA variant scans (doi:10.1093/nar/gkz1192)
